Source: the supplement of paper PMC3334620
Over roughly 33,000 sequences, “E-score (-0.5 to 0.5)” has its median near -0.056; the highest 2% begin near 0.38. The list shows a part of the results.

Biological target: Stb4 (UniProt P50104)
Assay: PBM E-score (8-mer binding enrichment) (E-score (-0.5 to 0.5)); higher = stronger / more preferred TF binding; most listed sequences are background and not binding sites
Conditions: protein concentration: 200 nM; construct: GST-DNA-binding domain
Procedure, shortened: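 E-scores (a modified Wilcoxon-Mann-Whitney statistic) were assigned by the Universal PBM Analysis Suite to every ungapped eight-base word pooled with its reverse complement. The input came from universal all-10-mer Agilent arrays made double-stranded by primer extension and probed with GST-tagged yeast transcription factors at about 100-200 nM. Fluorescent anti-GST detected bound protein, and masliner normalised the scans.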

Sequence	PBM E-score
GCGTTAAC	-0.0445
CTTTATGC	-0.0596
TTGTAAAA	0.0584
ACATCGAG	-0.305
ACTATCTG	-0.106
AAGTGCAT	-0.21
CCCTCCAA	-0.198
AGGCTCAT	-0.121
ACCAGAAA	-0.0713
AAGCGCCT	-0.0362
GAGGGCCC	-0.0131
CACTTTGA	-0.101
TAGGCATA	-0.215
GCATTGGC	-0.273
GCAATGTA	0.0551
ACCCCTGC	-0.0296
CGAATTTA	0.103
ATTGGATC	-0.0271
CGGGAGGC	0.197
TGGTACAA	-0.239
ACTAATCC	0.11
GCCTGCCC	0.0407
TATTATGA	-0.155
CTGAGTTA	-0.159
AACCGCGG	0.291

Sequence	PBM E-score
GCACGTCA	-0.127
CCTACAAC	-0.0712
ATCACGTA	-0.177
GCCACACC	-0.088
ATTTGTAG	-0.103
AGCCAACA	-0.202
ATCTCAGG	-0.0776
AGAGCGAT	-0.253
ACGCGTGC	-0.131
AGGGTGGG	0.0116
ACCAAAGC	0.00452
ATGATTTG	-0.208
CATGTTAG	-0.261
AGCCGGCA	0.316
CTGGGCAC	-0.109
CATACTAA	-0.184
CTATTCTC	-0.0228
ACTGATAA	0.00381
ACTCCTCT	-0.061
TAGAGATA	-0.0379
CCGACGTC	0.352
CCATGGAG	-0.244
CAAAGAAG	-0.128
GACAGAAA	0.0569
AGCGGGTC	0.0993

Sequence	PBM E-score
GACAGCAC	0.082
AAATTGAA	-0.126
AGGAGGGG	-0.0121
AACTCGCA	-0.278
GCACATTA	-0.171
CTCACGAA	-0.183
AAGAGAAC	-0.0683
CCTAGCCA	-0.327
ATATGGGA	-0.0207
ATCTGTCC	0.149
CGGCTTAC	0.178
AAGGAAAT	-0.103
CGCAGCAG	-0.15
AGGCAGGA	-0.188
GTGCCGAA	0.441
AGTTGTAC	0.0353
CGAGAGTC	0.0872
AAGAACAG	-0.164
GATACCAA	0.063
CTTGACGA	-0.0253
CATCGCGC	-0.0475
GCCTACGC	-0.306
CTCGCAAC	-0.0858
AATAATAG	-0.137
CAAAAAAG	-0.188

Sequence	PBM E-score
ACGTGGTA	-0.112
AAAGTATG	-0.018
GATACTCC	0.0462
AGCGAATC	-0.0302
AAACAGTC	-0.354
CAGTATAA	0.126
GCCTAGAC	-0.139
CGAGTCGA	0.0095
TCGTTTCA	-0.0734
CGGGAGAG	0.25
ACATTGCC	0.0763
CTTGCTAC	-0.0158
ACTGGATA	0.146
AACCCCGT	0.0263
ACACTTAA	-0.0841
ATGTAGGG	-0.104
CCCACGCA	-0.129
ATTAATCC	0.192
TCTGCTAA	-0.0533
AGTTAATG	-0.199
ACGTGGTC	-0.156
CTTAAGGA	-0.143
ACGTGGCG	-0.165
ATGCTCTC	-0.0992
GTTCGAAC	-0.0708

Sequence	PBM E-score
AGGTGCGG	0.154
TATATAGA	-0.157
GGTGCACA	-0.108
ATCGAAAG	-0.122
AAGACAGA	0.0492
AAACATTT	-0.00224
AGGAACCC	0.0598
ACCGCACT	0.055
CCTATTTA	-0.0265
CAACAGGA	-0.227
AATAACAG	0.00683
AGTCGAAG	-0.208
ATACCCGC	0.328
CTACGGGA	0.209
ACCTCGCT	-0.13
ACAGACGT	-0.00552
GCCACCCC	-0.0454
CACATATA	-0.145
TGAAGTCA	-0.0018
CATTGATA	0.117
CACGACAG	-0.238
GCCTATTA	-0.154
CCCTGGAC	-0.151
AATTCTCC	0.224
CATGAACA	0.0379

Sequence	PBM E-score
CGTTAGAC	-0.0185
ATTCGCAC	-0.00483
CAAACTCG	0.125
AGGCCGCG	-0.0789
AGTATGAG	-0.0426
CAAATGAG	-0.152
GAACGGAA	0.346
ACCGGAAT	0.294
GATAGAGA	-0.0842
AATATTGG	-0.124
CGGATGCC	0.337
AGCCCGTC	-0.0989
AAAACGAA	-0.0592
AATGGTTG	0.02
AGTGTGTC	-0.0648
GTCCGAAA	0.337
ACACCCGT	0.229
GGGCTATA	-0.0221
CGCAAGGA	-0.131
ACCACTAA	-0.0511
AAGGTGGT	-0.0395
ACGACAAT	-0.0306
ATTAGAGA	-0.154
CGAACAAG	0.233
CCAGTCAG	-0.0968

Sequence	PBM E-score
GCATGATA	-0.0594
TGTGCACA	-0.0333
GCAGACGA	-0.153
CCGTTAGA	0.17
CAACGTAG	-0.195
ATACGACG	0.0382
CGCTCTTA	0.00284
CTGACCCA	-0.233
GCGGCACC	0.179
GCAAGTTA	0.0966
GCTGCGAC	-0.255
CCCGTTGC	-0.106
CGCGGAGC	0.163
CATAGTGC	0.0399
GGTTTGAA	0.0487
AAGTTAGC	0.158
ATATTCCG	0.393
GCAGGCCA	-0.118
AGGGTCTA	-0.0483
GAATATGA	-0.0308
GAAAGAGC	-0.0816
CCCAAACG	-0.227
CCCACGGC	-0.00781
ATGCACGG	0.109
ACGGGGTC	0.134

Sequence	PBM E-score
ATTCAGCC	0.0302
ATCCCACA	-0.128
ACGGCGCA	0.109
GGTGTAAC	0.139
CGAAAGAC	0.127
ACATGAGG	-0.172
CATTAGTC	0.0554
ACCGTTGG	-0.171
CTTTTACA	0.0319
AGTGCATC	-0.121
ACAACCCA	-0.073
AAGGCGGA	0.169
GTAGTTGA	-0.0197
CGTCGACG	0.129
AAGGGAGG	-0.0163
ACGTTATA	-0.0378
CCAGGATA	-0.118
CATGCGGA	0.262
AGTGCACC	0.0754
ACACACAG	-0.134
GTCTACTA	-0.152
ACAACGGC	0.108
ATGATGAG	-0.202
CAGCACGC	-0.0778
CGCACCCA	-0.0716

Sequence	PBM E-score
CGCTTCAG	-0.0149
GCACCTCA	-0.157
CATCTTAA	-0.202
AAATGACG	0.0141
CGAGGTAG	0.0549
CTCAACGC	-0.237
AACCTGAG	-0.0336
AAGCAACT	-0.139
CTATCGCC	-0.204
CGGTGATA	0.0637
AACCTCCC	0.0907
GGAATTTA	0.238
CAGATTCC	0.0937
CGCTAATC	0.109
CCGTTAGC	0.0906
AAAAAACG	0.13
CATGAGAG	-0.14
ACCCTCGC	-0.131
ATACAATA	0.203
GTGGATCA	-0.136
ACACCTCC	0.0307
AGGCGTTG	-0.0398
CTGATGAC	-0.197
ACCAATCT	0.0037
GCGGATGA	0.304

Sequence	PBM E-score
CACCTCAC	-0.0152
ATCAGAAG	-0.189
AGGCAGCG	-0.204
GCCGGACC	0.196
CTTGTATC	-0.0718
TGAGTGAA	-0.295
GATGTCCA	0.0495
CAAGGAAG	-0.0564
GAGATACC	0.0426
ATCCCTTG	-0.0393
GTAGGGCA	-0.135
AAATCGTG	0.0338
GTGAAAGA	0.0652
TACCGCGA	0.12
AGTAGTTG	-0.0656
CTGACCTC	-0.0404
GCCCAAGA	-0.0973
AAGATCCT	-0.106
AATTGAGG	-0.128
ATATATCA	-0.0782
ACCAAACT	0.0246
ACCATGAA	0.0113
GTGCATAA	-0.019
GTGGTCCA	-0.0876
ATGCCAGA	0.0106

Sequence	PBM E-score
CGGGCGCC	0.0786
AGTTGGCC	-0.129
GCTTCCAC	-0.0711
AATCACCC	0.0941
GCTGTAAC	0.051
AGAGGGGC	-0.152
AAAGATAC	-0.091
ACCGCCTC	0.0269
ACAGATCT	-0.207
AAGGTCGC	0.121
CTATTCAG	-0.288
AAGGCAAC	0.0357
ACGGGACA	0.276
CAGATTTA	-0.0167
TACCGCTA	-0.0725
TAGCCGAA	0.446
CGTGTGGA	0.0135
CTTAGTCC	0.056
TCACTAGA	-0.064
AGAACCGC	0.105
AGACACTC	-0.254
CAGTAATG	-0.287
GTCGCCGA	0.254
AACCCGTC	-0.0454
GCAGTAAC	-0.0988

Sequence	PBM E-score
ATACTCTA	0.00093
AAAAACTA	0.0629
GAGACACA	0.0418
ACTTCAAC	0.114
CATTCAAC	-0.218
ATTAGATG	0.0136
TTAAAGAA	-0.136
CATCCGGC	0.397
TAAGGGAA	-0.174
ACACCCAC	0.0222
CCTCGGCC	0.313
CGTTATAC	-0.142
AGTAACTA	0.13
CAAATAAG	-0.0233
GGGGGCAA	-0.0508
ACTCCCTG	-0.263
CAGACCTC	-0.129
AAGTCGTA	-0.207
ATATATCG	0.0307
CAGGGCAA	-0.128
AGTCAACA	-0.0722
AGAGCATC	0.0281
GGCGGCGA	0.0554
TACGGCGA	0.077
GTACAATA	-0.14

Sequence	PBM E-score
CCTATAAC	-0.284
CCGAGTAC	0.383
AGCATGGA	-0.0965
AGCGACAG	-0.094
CAAAATAG	0.00967
AAAAGTCT	-0.184
AACGTAAC	-0.0298
CATCAAGA	-0.0861
TGAATACA	0.0533
TGAGTTAA	-0.113
AATAAAGG	-0.193
AGCTCCTG	-0.175
AGAAGCCG	0.16
CCCAAGAG	-0.176
AGGGCACC	-0.0434
GCTAGTCA	-0.246
AGCGACTC	-0.109
